Patent publication US8911966B2, “Efficient astaxanthin production strains derived from Haematococcus pluvialis” (Cognis IP Management GmbH, priority 2007, dated 2014)

System: Haematococcus pluvialis SAG 34-1b
Test: Growth inhibition of wild strain by herbicides (minimal inhibiting concentration)
Assay type: cell-based
Settings: strain SAG 34-1b; concentration also used for selection

Row | SMILES | minimal concentration of the herbicide which inhibits the growth of the wild strain [µM]
1 | CNc1cnn(-c2cccc(C(F)(F)F)c2)c(=O)c1Cl [Norflurazon, norflurazon] | 2
2 | c1ccc(Nc2ccccc2)cc1 [Diphenylamine, diphenylamine] | 60
